Measurements from PubChem BioAssay AID504339 (National Center for Advancing Translational Sciences (NCATS), 2011).
About 17,000 (4.4%) of roughly 390,000 compounds were called active. The inconclusive results got no clear call from the source; some entries with a clear call stand among them for comparison. The call rests on the fitted dose curve; in most records, active means well fitted inhibition curve with a large enough effect; inconclusive means small, poorly fitted or top-dose-only effect; inactive means no such curve, though single readings can be large or run the other way. Potencies beside an inconclusive call are fits to weak or partial responses and may not hold up.

Target: Lysine-specific demethylase 4A (Homo sapiens) (UniProt O75164)
Test: qHTS Assay for Inhibitors of JMJD2A-Tudor Domain; further: nearly all actives have a fitted effect of over 50% in size
Conditions: AlphaScreen JMJD2A-Tudor / H3K4me3 peptide binding; series mostly up to 114 µM
Potency means the concentration at half of the fitted maximal effect; tags describe the fitted curve by direction and shape.

Sequence of UniProt O75164 (O75164 whole entry, looked up, the tested form may be a part): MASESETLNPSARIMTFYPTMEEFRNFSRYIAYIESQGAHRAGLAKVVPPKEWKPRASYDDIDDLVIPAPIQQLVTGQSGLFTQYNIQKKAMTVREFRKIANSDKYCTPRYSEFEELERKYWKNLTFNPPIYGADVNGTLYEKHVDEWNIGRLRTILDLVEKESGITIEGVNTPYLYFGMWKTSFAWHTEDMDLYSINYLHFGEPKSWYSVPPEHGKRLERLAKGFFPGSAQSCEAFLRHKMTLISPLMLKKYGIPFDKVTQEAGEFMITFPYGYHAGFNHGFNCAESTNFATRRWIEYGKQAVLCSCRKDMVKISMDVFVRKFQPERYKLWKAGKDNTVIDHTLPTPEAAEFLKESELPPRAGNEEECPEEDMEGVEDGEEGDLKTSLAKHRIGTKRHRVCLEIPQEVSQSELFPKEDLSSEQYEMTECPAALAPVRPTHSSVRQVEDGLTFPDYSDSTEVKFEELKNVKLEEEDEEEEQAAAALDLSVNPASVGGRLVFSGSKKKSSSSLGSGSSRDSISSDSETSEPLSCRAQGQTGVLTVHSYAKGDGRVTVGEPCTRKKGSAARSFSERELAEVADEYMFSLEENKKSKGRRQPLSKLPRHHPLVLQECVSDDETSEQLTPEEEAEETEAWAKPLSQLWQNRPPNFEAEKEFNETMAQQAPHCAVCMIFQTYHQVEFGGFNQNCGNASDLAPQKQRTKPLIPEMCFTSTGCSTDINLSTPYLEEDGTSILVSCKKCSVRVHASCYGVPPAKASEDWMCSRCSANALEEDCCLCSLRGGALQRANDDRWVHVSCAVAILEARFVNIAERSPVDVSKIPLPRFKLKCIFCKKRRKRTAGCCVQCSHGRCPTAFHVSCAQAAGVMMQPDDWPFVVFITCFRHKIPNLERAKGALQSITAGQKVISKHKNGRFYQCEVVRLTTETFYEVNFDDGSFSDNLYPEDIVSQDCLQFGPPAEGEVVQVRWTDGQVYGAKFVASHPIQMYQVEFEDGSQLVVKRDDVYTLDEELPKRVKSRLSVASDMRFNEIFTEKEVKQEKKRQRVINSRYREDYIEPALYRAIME

Potency, inconclusive:
COc1cc(NCc2ccccc2)c2ncn(C(C)C)c2c1 63.1 µM [inhibitor, partial curve, poor fit]
O=C(O)c1ccc2c(c1)C(=O)N(Cc1ccco1)C2=O 20 µM [inhibitor, full curve, poor fit]
Cc1ccc(-n2c(C)c(C)c3c(NCCCO)ncnc32)cc1 39.8 µM [inhibitor, partial curve]
COc1cccc(/C=C2\SC(=S)N(CCCC(=O)NC3=NCCS3)C2=O)c1 35.5 µM [inhibitor, partial curve]
CN(C)CCNC(=O)c1ccc2c(c1)N(Cc1ccc(F)cc1)CCS2 22.4 µM [inhibitor, full curve, poor fit]
CC(C)(C)c1ccc(CCC2OCC(C[N+]3(C)CCOCC3)O2)cc1 (stereo not drawn) 39.8 µM [inhibitor, single point]
CCOC(=O)C1=C(C)N=c2s/c(=C\c3ccc(C(=O)O)cc3)c(=O)n2C1c1ccc(F)cc1 (stereo not drawn) 79.4 µM [inhibitor, partial curve]
Cc1cccc(NC(=O)C2CCN(C(=O)NC3CCCCC3)CC2)c1 89.1 µM [inhibitor, single point]
CCN(CC)S(=O)(=O)c1ccc(N/N=C/c2ccccc2OCC(=O)O)c([N+](=O)[O-])c1 22.4 µM [inhibitor, partial curve]
COc1ccc(NC(=O)c2c(NCc3cccs3)sc3c2CCCC3)cc1 31.6 µM [inhibitor, full curve]
COc1cc2c(cc1OC)-c1cc(Nc3ccc(C(=O)O)cc3)nc(=O)n1CC2 50.1 µM [inhibitor, partial curve]
COc1cc(NC(=O)CN2C(=O)NC(C)(c3ccc4ccccc4c3)C2=O)c(C)cc1[N+](=O)[O-] (stereo not drawn) 25.1 µM [inhibitor, single point]
COc1ccc(N2CCN(C(CNS(=O)(=O)c3cc(F)ccc3F)c3cccnc3)CC2)cc1 (stereo not drawn) 50.1 µM [inhibitor, partial curve]
Cc1occc1-c1nnc(SCC(=O)Nc2ccc(F)cc2)n1Cc1ccccc1 63.1 µM [inhibitor, partial curve]
CCN(CCNC(=O)c1ccc(CSc2nc3ccncc3[nH]2)cc1)c1ccccc1 100 µM [inhibitor, single point]
COc1ccc(OC)c(-n2c(=O)c3ccccc3c3ccccc3c2=O)c1 12.6 µM [inhibitor, full curve, poor fit]
CCN(CCCNC(=O)c1cc(Nc2ccc(OC)cc2OC)nc2ccccc12)c1cccc(C)c1 7.94 µM [inhibitor, full curve]
CCCCC1=CC2=CC(=O)C(C)(OC(=O)CC)C(=O)C2=CN1c1ccc(OC)cc1 (stereo not drawn) 56.2 µM [inhibitor, partial curve]
C=CCOc1ccc(CNc2ccc3[nH]c(=O)[nH]c3c2)cc1OCC 56.2 µM [inhibitor, partial curve]
CC(C)=CCc1cc([C@@H]2COc3c(ccc4c3C=CC(C)(C)O4)C2)c(O)cc1O 44.7 µM [inhibitor, partial curve]
Cc1cccc2cc3c(N)c(C(=O)N4CCOCC4)sc3nc12 14.1 µM [inhibitor, partial curve]
COc1ccccc1CCNC(=O)C(=O)c1cn(CC(=O)N2CCCC2)c2ccccc12 100 µM [inhibitor, partial curve, poor fit]
COc1ccc2[nH]c(C)c(CCN(Cc3cccs3)C(=S)Nc3cccc(F)c3)c2c1 35.5 µM [inhibitor, full curve]
COc1cc(S(=O)(=O)Nc2ccc(C)cc2)ccc1N=Cc1c(C)[nH]n(-c2ccccc2)c1=O 50.1 µM [inhibitor, partial curve, poor fit]
c1ccc(Cc2nc3ccccc3s2)cc1 17.8 µM [inhibitor, single point]
COc1cc(/C=N/NC(=S)NCCc2ccccc2)cc(OC)c1OC 63.1 µM [inhibitor, single point]
O=C(CCN1C(=O)COc2ccccc21)NCc1cccs1 39.8 µM [inhibitor, partial curve]
CCc1ccc(-c2nc(CS(=O)CC(=O)NCCCN3CCC(C)CC3)c(C)o2)cc1 (stereo not drawn) 31.6 µM [inhibitor, partial curve]
CC(=O)C(=Nc1cccc(Cl)c1)NNc1ccccc1C 44.7 µM [inhibitor, partial curve]
Cc1ccc(C)c(N2CCN(C(=O)C3CCN(c4nnc(N5CCCC5=O)s4)CC3)CC2)c1 100 µM [inhibitor, single point]
O=C(NCc1cccnc1)/C(=C\c1ccc(-c2ccc(Br)cc2)o1)S(=O)(=O)c1ccccc1 50.1 µM [inhibitor, partial curve]
COc1cccc(/C=N/N2CCN(c3ccc(Cl)cc3)CC2)c1OC 39.8 µM [inhibitor, partial curve]
CC(C)c1ccc(NC2CCCN(C(=O)c3ccccc3-c3ncc[nH]3)C2)cc1 (stereo not drawn) 89.1 µM [inhibitor, single point]
CC(C)N(C(=O)[C@H]1C[C@H](CC(=O)NCCC2=CCCCC2)C(=O)N2CCc3c([nH]c4ccc(Cl)cc34)[C@]12C)C(C)C 15.8 µM [inhibitor, full curve]
O=C(Oc1cccc(C(=S)N2CCOCC2)c1)c1ccc([N+](=O)[O-])cc1 56.2 µM [inhibitor, partial curve]
CCOC(=O)N1CCN(S(=O)(=O)c2ccc(C(=O)N(CCN(CC)CC)c3nc4ccc(C)cc4s3)cc2)CC1 17.8 µM [inhibitor, full curve]
CCC(OC(=O)CC1Sc2ccccc2NC1=O)C(=O)NCC1CCCO1 (stereo not drawn) 89.1 µM [inhibitor, single point]
O=C(NCc1cccs1)c1ccc(S(=O)(=O)N2CCCCC2)cc1 12.6 µM [inhibitor, full curve]
CCNc1ccc(C(=O)OCC(=O)N2CCCC2)cc1[N+](=O)[O-] 35.5 µM [inhibitor, single point]
Cc1cc(C)cc(NC(=O)CCCn2c(=O)c3cccn3c3ccccc32)c1 44.7 µM [inhibitor, partial curve]
COCCCn1c(Cc2csc(Nc3ccc(F)cc3)n2)nnc1SCC(N)=O 79.4 µM [inhibitor, single point]

Potency, inactive:
CNC(=O)c1c(NC(=O)C2=COCCO2)sc2c1CCN(C(=O)OC)C2
CC(C)(NC(=O)c1cc(Cl)c2ccccc2c1O)C(=O)O
COc1ccc(S(=O)(=O)N2CCC(C(=O)NCCC(=O)NC3CC3)CC2)cc1
O=C(Nc1ccccc1N1CCOCC1)c1ccc2c(c1)OCCO2
CCOc1ccccc1NC(=O)CN(c1ccc(OC)cc1)S(=O)(=O)c1c(C)[nH]c(=O)[nH]c1=O
NNC(=O)c1sc2nc(N3CCOCC3)c3c(c2c1N)CCCC3
Cc1ccc(NC(=O)NCc2cccnc2)cc1Cl
CC(C)S(=O)(=O)c1oc(-c2cccs2)nc1S(=O)(=O)c1ccc(F)cc1
CCOC(=O)c1c(NC(=O)CSc2nc3ccccc3s2)sc(C(C)=O)c1C
O=C1CC(c2cccc(O)c2)c2cc3c(cc2N1)OCO3 (stereo not drawn)
Cc1ccc(C(=O)N2CCc3cc(CNC(=O)CCc4ccccc4)ccc32)cc1
COC(=O)c1ccc(/C=N/Nc2nc(-c3ccc(C)cc3)cs2)cc1
CCOc1ccc(NC(=O)CC2C(=O)N(c3ccccc3)C(=O)N2Cc2cccc(OC)c2)cc1 (stereo not drawn)
CCCCC#Cc1cncc(C(=O)N/N=C/c2cccc(OC)c2)c1
CCCOC(=O)C(C)Sc1n[nH]c(=O)[nH]c1=O (stereo not drawn)
CCc1nc2ccc(C(=O)NCc3cccc(Br)c3)cc2nc1CC
COCCCN(C(=S)Nc1cc(C)cc(C)c1)C(C)c1ccncc1 (stereo not drawn)

Potency, active:
CCCn1nc([N+](=O)[O-])c(C(C#N)c2nc3ccccc3s2)c(Cl)c1=O (stereo not drawn) 15.8 µM
Nn1c(Cc2ccc(F)cc2)n[nH]c1=S 4.47 µM
CCc1nn2c(=O)cc(COc3cccc(NC(=O)c4ccco4)c3)nc2s1 25.1 µM
CCCCN(C)CC(O)Cn1cc(/C=C/C(=O)c2ccc(C)cc2)c2ccccc21 (stereo not drawn) 50.1 µM
CN(C)c1cccc(C(=O)Nc2nc3ccccc3[nH]2)c1 44.7 µM
O=C(CSc1nc2ccccc2n1CCc1ccccc1)c1ccc(O)c(O)c1 7.94 µM
C=C(C)C(=O)Nc1cccc(C2=NOC3(C2)C[C@@H](C(N)=O)N(C(=O)CC(c2ccccc2)c2ccccc2)C3)c1 (stereo partly drawn) 20 µM
CCN(CC)CCn1c(-c2ccccc2)csc1=Nc1ccccc1 17.8 µM
Cc1cccc(N=C2NC(=O)/C(=C/C=C/c3ccco3)S2)c1C 39.8 µM
O=C(CN1CCN(c2ccccn2)CC1)N1c2ccccc2Sc2ccc(C(F)(F)F)cc21 2 µM
